Results as given in the supplement of paper PMC11741623.
This is one part of the list. Interaction screen of human proteins with wild-type SARS-CoV-2 proteins by split-DHFR complementation in yeast, 1 µg/mL methotrexate. Value = fitness of the pair (three or more lineages) minus that of the viral protein without a human partner, on a scale set by negative (0) and fused positive (1) controls, mean of up to three cultures; higher = more likely to interact. Active = false discovery rate below 0.05 (one-sided t-test) in at least one culture. Nearly all pairs are not hits, and differences among them are mostly noise (correlation between cultures about 0.3); most hits were seen in one culture only. Human sequences are the Swiss-Prot entries looked up by gene name; the clone may be another isoform. NSP2 values were corrected by the authors for a growth advantage. Listed are human proteins with a hit and a random twelfth of the others.

Legend:
Assay in all cases: yeast fitness gain over the viral ORF with no human partner (scaled fitness); higher = more likely to interact
SARS-CoV-2 E = test system: SARS-CoV-2 E
Description: (§1)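 Split mouse DHFR complementation in pooled diploid yeast: human ORFeome clones carry one fragment and viral ORFs the other; barcoded lineages compete in 1 µg/mL methotrexate and fitness is read by barcode sequencing in up to three cultures.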

SARS-CoV-2 M = test system: SARS-CoV-2 M
Description: as §1

SARS-CoV-2 NSP10 = test system: SARS-CoV-2 NSP10
Description: as §1

SARS-CoV-2 NSP13 = test system: SARS-CoV-2 NSP13
Description: as §1

SARS-CoV-2 NSP14 = test system: SARS-CoV-2 NSP14
Description: as §1

SARS-CoV-2 NSP15 = test system: SARS-CoV-2 NSP15
Description: as §1

SARS-CoV-2 NSP16 = test system: SARS-CoV-2 NSP16
Description: as §1

SARS-CoV-2 NSP1 = test system: SARS-CoV-2 NSP1
Description: as §1

SARS-CoV-2 NSP2 = test system: SARS-CoV-2 NSP2
Description: as §1

SARS-CoV-2 NSP4 = test system: SARS-CoV-2 NSP4
Description: as §1

SARS-CoV-2 NSP5 = test system: SARS-CoV-2 NSP5
Description: as §1

SARS-CoV-2 NSP6 = test system: SARS-CoV-2 NSP6
Description: as §1

SARS-CoV-2 NSP7 = test system: SARS-CoV-2 NSP7
Description: as §1

SARS-CoV-2 NSP8 = test system: SARS-CoV-2 NSP8
Description: as §1

SARS-CoV-2 NSP9 = test system: SARS-CoV-2 NSP9
Description: as §1

SARS-CoV-2 N = test system: SARS-CoV-2 N
Description: as §1

SARS-CoV-2 ORF10 = test system: SARS-CoV-2 ORF10
Description: as §1

SARS-CoV-2 ORF3B = test system: SARS-CoV-2 ORF3B
Description: as §1

SARS-CoV-2 ORF6 = test system: SARS-CoV-2 ORF6
Description: as §1

SARS-CoV-2 ORF7A = test system: SARS-CoV-2 ORF7A
Description: as §1

SARS-CoV-2 ORF7B = test system: SARS-CoV-2 ORF7B
Description: as §1

SARS-CoV-2 ORF8 = test system: SARS-CoV-2 ORF8
Description: as §1

SARS-CoV-2 S = test system: SARS-CoV-2 S
Description: as §1

SARS-CoV-2 ORF3A = test system: SARS-CoV-2 ORF3A
Description: as §1

Measured: yeast fitness gain

PRR14L, Q5THK1
inactive: SARS-CoV-2 E -0.128 | SARS-CoV-2 M -0.0202 | SARS-CoV-2 NSP10 = 0.00455 | SARS-CoV-2 NSP13 = -0.0404 | SARS-CoV-2 NSP14 = 0.0317 | SARS-CoV-2 NSP15 = -0.0229 | SARS-CoV-2 NSP16 = -0.0745 | SARS-CoV-2 NSP1 = 0.0217 | SARS-CoV-2 NSP2 = -0.117 | SARS-CoV-2 NSP4 = -0.0336 | SARS-CoV-2 NSP5 = -0.0891 | SARS-CoV-2 NSP6 = 0.00808 | SARS-CoV-2 NSP7 = -0.0461 | SARS-CoV-2 NSP8 = -0.0264 | SARS-CoV-2 NSP9 = -0.0575 | SARS-CoV-2 N -0.0158 | SARS-CoV-2 ORF10 = -0.0481 | SARS-CoV-2 ORF3B -0.00477 | SARS-CoV-2 ORF6 = 0.0374 | SARS-CoV-2 ORF7A -0.0112 | SARS-CoV-2 ORF7B -0.0685 | SARS-CoV-2 ORF8 = -0.00466 | SARS-CoV-2 S 0.0166

SRGAP1, Q7Z6B7
inactive: SARS-CoV-2 NSP10 = 0.0582 | SARS-CoV-2 NSP13 = -0.0761 | SARS-CoV-2 ORF10 = -0.262 | SARS-CoV-2 ORF6 = 0.0828

ZNF611, Q8N823
inactive: SARS-CoV-2 NSP2 = -0.614 | SARS-CoV-2 ORF6 = 0.0624 | SARS-CoV-2 ORF7A 0.0185 | SARS-CoV-2 ORF8 = -0.299

PTBP1, P26599
inactive: SARS-CoV-2 M -0.103 | SARS-CoV-2 NSP10 = 0.0312 | SARS-CoV-2 NSP13 = 0.0618 | SARS-CoV-2 NSP2 = 0.0522 | SARS-CoV-2 NSP6 = 0.195 | SARS-CoV-2 NSP7 = 0.189 | SARS-CoV-2 ORF10 = -0.113 | SARS-CoV-2 ORF6 = -0.11 | SARS-CoV-2 ORF8 = 0.16 | SARS-CoV-2 S 0.27

PTCD1, O75127
inactive: SARS-CoV-2 M -0.0506 | SARS-CoV-2 NSP10 = 0.0572 | SARS-CoV-2 NSP13 = -0.0167 | SARS-CoV-2 ORF3B -0.0562 | SARS-CoV-2 ORF6 = -0.353 | SARS-CoV-2 ORF8 = 0.0924

LARP1B, Q659C4
inactive: SARS-CoV-2 M -0.112 | SARS-CoV-2 NSP10 = -0.0454 | SARS-CoV-2 NSP16 = 0.0825 | SARS-CoV-2 NSP5 = -0.0873 | SARS-CoV-2 NSP6 = 0.0502 | SARS-CoV-2 NSP8 = -0.102 | SARS-CoV-2 N -0.0739 | SARS-CoV-2 ORF10 = -0.187 | SARS-CoV-2 ORF3A -0.0411 | SARS-CoV-2 ORF7B -0.00157

SOX14, O95416
inactive: SARS-CoV-2 NSP15 = 0.00206 | SARS-CoV-2 NSP16 = 0.00298 | SARS-CoV-2 NSP6 = -0.00417 | SARS-CoV-2 NSP8 = -0.0493 | SARS-CoV-2 ORF7B -0.0619

MAFF, Q9ULX9
inactive: SARS-CoV-2 NSP10 = -0.00801 | SARS-CoV-2 NSP13 = -0.0403 | SARS-CoV-2 NSP16 = -0.109 | SARS-CoV-2 NSP2 = -0.0193 | SARS-CoV-2 NSP5 = -0.0541 | SARS-CoV-2 NSP6 = -0.0305 | SARS-CoV-2 ORF10 = -0.0228 | SARS-CoV-2 ORF3B -0.106 | SARS-CoV-2 ORF6 = -0.015 | SARS-CoV-2 ORF7A 0.00359 | SARS-CoV-2 ORF7B -0.109 | SARS-CoV-2 ORF8 = -0.0383 | SARS-CoV-2 S -0.0182

HAUS7, Q99871
inactive: SARS-CoV-2 M -0.0115 | SARS-CoV-2 NSP10 = 0.0101 | SARS-CoV-2 NSP13 = 0.0994 | SARS-CoV-2 NSP15 = 0.0407 | SARS-CoV-2 NSP1 = -0.0212 | SARS-CoV-2 NSP2 = -0.263 | SARS-CoV-2 NSP5 = -0.0658 | SARS-CoV-2 NSP6 = -0.067 | SARS-CoV-2 NSP7 = 0.000141 | SARS-CoV-2 NSP8 = -0.0852 | SARS-CoV-2 NSP9 = -0.169 | SARS-CoV-2 N -0.166 | SARS-CoV-2 ORF10 = -0.0107 | SARS-CoV-2 ORF3A 0.0454 | SARS-CoV-2 ORF3B 0.0928 | SARS-CoV-2 ORF6 = -0.0855 | SARS-CoV-2 ORF7B -0.0207 | SARS-CoV-2 ORF8 = 0.0236 | SARS-CoV-2 S 0.0544

BNIP3L, O60238
inactive: SARS-CoV-2 M 0.0282 | SARS-CoV-2 NSP10 = 0.0399 | SARS-CoV-2 NSP13 = -0.144 | SARS-CoV-2 NSP1 = 0.0427 | SARS-CoV-2 NSP2 = -0.293 | SARS-CoV-2 NSP5 = -0.184 | SARS-CoV-2 ORF10 = 0.0473 | SARS-CoV-2 ORF3A -0.104 | SARS-CoV-2 ORF3B 0.106 | SARS-CoV-2 ORF6 = -0.0646 | SARS-CoV-2 ORF7B 0.0592 | SARS-CoV-2 ORF8 = 0.0365 | SARS-CoV-2 S 0.0217

BHLHA15, Q7RTS1
inactive: SARS-CoV-2 M -0.171 | SARS-CoV-2 NSP10 = -0.473 | SARS-CoV-2 NSP13 = -0.128 | SARS-CoV-2 NSP15 = -0.181 | SARS-CoV-2 NSP2 = -0.233 | SARS-CoV-2 NSP5 = -0.0479 | SARS-CoV-2 NSP6 = 0.169 | SARS-CoV-2 NSP7 = 0.0533 | SARS-CoV-2 NSP8 = -0.324 | SARS-CoV-2 ORF10 = -0.0213 | SARS-CoV-2 ORF3B -0.00117 | SARS-CoV-2 ORF6 = 0.0144 | SARS-CoV-2 ORF7A 0.0161 | SARS-CoV-2 ORF7B -0.0182 | SARS-CoV-2 ORF8 = -0.139

EGR3, Q06889
inactive: SARS-CoV-2 NSP10 = 0.014 | SARS-CoV-2 NSP13 = -0.0888 | SARS-CoV-2 NSP14 = -0.261 | SARS-CoV-2 NSP16 = 0.0298 | SARS-CoV-2 NSP2 = -0.0814 | SARS-CoV-2 NSP5 = -0.0521 | SARS-CoV-2 ORF10 = -0.0153 | SARS-CoV-2 ORF3B -0.166 | SARS-CoV-2 ORF6 = 0.067 | SARS-CoV-2 ORF7B 0.013 | SARS-CoV-2 ORF8 = -0.0208 | SARS-CoV-2 S 0.0601

MCM9, Q9NXL9
inactive: SARS-CoV-2 NSP10 = -0.12 | SARS-CoV-2 NSP13 = 0.012 | SARS-CoV-2 NSP1 = -0.203 | SARS-CoV-2 NSP2 = 0.000442 | SARS-CoV-2 NSP5 = 0.0323 | SARS-CoV-2 NSP6 = 0.122 | SARS-CoV-2 N 0.103 | SARS-CoV-2 ORF10 = -0.0853 | SARS-CoV-2 ORF3B -0.0575 | SARS-CoV-2 ORF6 = -0.08 | SARS-CoV-2 ORF7A 0.27 | SARS-CoV-2 ORF7B 0.159 | SARS-CoV-2 ORF8 = -0.0151 | SARS-CoV-2 S 0.0332
